Data taken from the supplement of paper PMC9151546.
Single values are uncertain, as repeats are few or missing.

Tests used:
CHO-K1 [1] = experiment: micronucleus frequency (% of nucleated events); higher = more micronuclei (genotoxic)
CHO-K1 [2] = experiment: hypodiploid nuclei frequency (% of nucleated events); higher = more hypodiploid events (aneugenic)
Description: (§1)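 Flow-cytometric in vitro micronucleus assay (Litron MicroFlow) in CHO-K1 cells in 96-well plates, 19 concentrations (4.5-200 µM, n=1 per concentration). Without S9, cells were exposed for 24 h and sampled at 48 h. With Aroclor 1254-induced rat liver S9, cells were exposed for 3-4 h and sampled at 27-28 h. Read-outs are %MN and %hypodiploid nuclei relative to nucleated events, and relative survival as the nuclei-to-bead ratio versus the 1% DMSO vehicle control (x100).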

CHO-K1 [3] = experiment: relative survival (nuclei to bead ratio vs DMSO control) (% of vehicle control); higher = more surviving cells
Description: as §1
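Throughout, for hypodiploid nuclei frequency (% of nucleated events): hypodiploid nuclei gated on a flow cytometer with 488 nm excitation after SYTOX Green staining, cultures at 37 °C, positive controls vinblastine without S9 and cyclophosphamide with S9.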
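Throughout, for micronucleus frequency (% of nucleated events): cells lysed with nuclei stained by SYTOX Green, then micronucleus-gated events counted against nucleated events by flow cytometry with 488 nm excitation.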
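Throughout, for relative survival (nuclei to bead ratio vs DMSO control): Lysed-cell nuclei stained with SYTOX Green and counted against counting beads by flow cytometry at 488 nm excitation, with vinblastine (no S9) and cyclophosphamide (plus S9) as positive controls.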

O=c1[nH]c(=O)[nH]c(=O)[nH]1 [Cyanuric acid]
Details	hypodiploid nuclei frequency, CHO-K1 [2] [%]	micronucleus frequency, CHO-K1 [1] [%]	relative survival, CHO-K1 [3]
concentration: 4.48 (µM), S9 metabolic activation: with S9, exposure time: 3-4 hours	0.34	1.78	155
concentration: 4.48 (µM), S9 metabolic activation: without S9, exposure time: 24 hours	0.34	1.06	108
concentration: 5.6 (µM), S9 metabolic activation: with S9, exposure time: 3-4 hours	0.16	1.88	152
concentration: 5.6 (µM), S9 metabolic activation: without S9, exposure time: 24 hours	0.68	1.16	106
concentration: 7 (µM), S9 metabolic activation: with S9, exposure time: 3-4 hours	0.38	1.52	135
concentration: 7 (µM), S9 metabolic activation: without S9, exposure time: 24 hours	0.58	1.46	105
concentration: 8.75 (µM), S9 metabolic activation: with S9, exposure time: 3-4 hours	0.22	1.2	112
concentration: 8.75 (µM), S9 metabolic activation: without S9, exposure time: 24 hours	0.6	1.6	102
concentration: 10.9 (µM), S9 metabolic activation: with S9, exposure time: 3-4 hours	0.18	1.58	159
concentration: 10.9 (µM), S9 metabolic activation: without S9, exposure time: 24 hours	0.42	1.22	99.5
concentration: 13.7 (µM), S9 metabolic activation: with S9, exposure time: 3-4 hours	0.2	1.98	124
concentration: 13.7 (µM), S9 metabolic activation: without S9, exposure time: 24 hours	0.6	1.32	118
concentration: 17.1 (µM), S9 metabolic activation: with S9, exposure time: 3-4 hours	0.3	2.7	114
concentration: 17.1 (µM), S9 metabolic activation: without S9, exposure time: 24 hours	0.68	1.4	115
concentration: 21.4 (µM), S9 metabolic activation: with S9, exposure time: 3-4 hours	0.28	1.98	92.9
concentration: 21.4 (µM), S9 metabolic activation: without S9, exposure time: 24 hours	0.46	1.5	105
concentration: 26.7 (µM), S9 metabolic activation: with S9, exposure time: 3-4 hours	0.26	1.32	171
concentration: 26.7 (µM), S9 metabolic activation: without S9, exposure time: 24 hours	0.66	1.14	102
concentration: 33.4 (µM), S9 metabolic activation: with S9, exposure time: 3-4 hours	0.18	1.58	167
concentration: 33.4 (µM), S9 metabolic activation: without S9, exposure time: 24 hours	0.6	1.3	98.5
concentration: 41.7 (µM), S9 metabolic activation: with S9, exposure time: 3-4 hours	0.26	2.04	194
concentration: 41.7 (µM), S9 metabolic activation: without S9, exposure time: 24 hours	0.6	1.68	99
concentration: 52.2 (µM), S9 metabolic activation: with S9, exposure time: 3-4 hours	0.14	1.66	134
concentration: 52.2 (µM), S9 metabolic activation: without S9, exposure time: 24 hours	0.54	2.32	100
concentration: 65.2 (µM), S9 metabolic activation: with S9, exposure time: 3-4 hours	0.22	1.86	148
concentration: 65.2 (µM), S9 metabolic activation: without S9, exposure time: 24 hours	0.7	1.7	97.6
concentration: 81.5 (µM), S9 metabolic activation: with S9, exposure time: 3-4 hours	0.16	1.36	128
concentration: 81.5 (µM), S9 metabolic activation: without S9, exposure time: 24 hours	1	2.34	97.1
concentration: 102 (µM), S9 metabolic activation: with S9, exposure time: 3-4 hours	0.2	2.14	131
concentration: 102 (µM), S9 metabolic activation: without S9, exposure time: 24 hours	0.5	1.76	117
concentration: 127 (µM), S9 metabolic activation: with S9, exposure time: 3-4 hours	0.28	2.4	130
concentration: 127 (µM), S9 metabolic activation: without S9, exposure time: 24 hours	0.68	2.18	96.2
concentration: 159 (µM), S9 metabolic activation: with S9, exposure time: 3-4 hours	0.28	1.58	149
concentration: 159 (µM), S9 metabolic activation: without S9, exposure time: 24 hours	0.88	2.46	90.8
concentration: 199 (µM), S9 metabolic activation: with S9, exposure time: 3-4 hours	0.32	2.14	136
concentration: 199 (µM), S9 metabolic activation: without S9, exposure time: 24 hours	0.78	2.42	93.7

C[C@@H]1C[C@@H]([C@H](O)CC2CC(=O)NC(=O)C2)C(=O)[C@@H](C)C1 [Cycloheximide]
Details	hypodiploid nuclei frequency, CHO-K1 [2] [%]	micronucleus frequency, CHO-K1 [1] [%]	relative survival, CHO-K1 [3]
concentration: 4.5 (µM), S9 metabolic activation: with S9, exposure time: 3-4 hours	0.26	2.22	74.6
concentration: 4.5 (µM), S9 metabolic activation: without S9, exposure time: 24 hours	–	–	43
concentration: 5.63 (µM), S9 metabolic activation: with S9, exposure time: 3-4 hours	0.24	2.54	73.7
concentration: 5.63 (µM), S9 metabolic activation: without S9, exposure time: 24 hours	–	–	34.6
concentration: 7.04 (µM), S9 metabolic activation: with S9, exposure time: 3-4 hours	0.34	2.76	72.5
concentration: 7.04 (µM), S9 metabolic activation: without S9, exposure time: 24 hours	–	–	37.6
concentration: 8.8 (µM), S9 metabolic activation: with S9, exposure time: 3-4 hours	0.46	3.22	79.3
concentration: 8.8 (µM), S9 metabolic activation: without S9, exposure time: 24 hours	–	–	37.7
concentration: 11 (µM), S9 metabolic activation: with S9, exposure time: 3-4 hours	0.44	4.42	74.2
concentration: 11 (µM), S9 metabolic activation: without S9, exposure time: 24 hours	–	–	39.5
concentration: 13.7 (µM), S9 metabolic activation: with S9, exposure time: 3-4 hours	0.32	3.52	68.4
concentration: 13.7 (µM), S9 metabolic activation: without S9, exposure time: 24 hours	–	–	40.6
concentration: 17.2 (µM), S9 metabolic activation: with S9, exposure time: 3-4 hours	0.36	3.72	59.5
concentration: 17.2 (µM), S9 metabolic activation: without S9, exposure time: 24 hours	–	–	38.4
concentration: 21.5 (µM), S9 metabolic activation: with S9, exposure time: 3-4 hours	0.38	5.4	54
concentration: 21.5 (µM), S9 metabolic activation: without S9, exposure time: 24 hours	–	–	38.1
concentration: 26.8 (µM), S9 metabolic activation: with S9, exposure time: 3-4 hours	0.26	3.96	55.1
concentration: 26.8 (µM), S9 metabolic activation: without S9, exposure time: 24 hours	–	–	31.6
concentration: 33.6 (µM), S9 metabolic activation: with S9, exposure time: 3-4 hours	0.34	7.32	52.7
concentration: 33.6 (µM), S9 metabolic activation: without S9, exposure time: 24 hours	–	–	31.9
concentration: 41.9 (µM), S9 metabolic activation: with S9, exposure time: 3-4 hours	0.33	5.09	46.2
concentration: 41.9 (µM), S9 metabolic activation: without S9, exposure time: 24 hours	–	–	30.8
concentration: 52.4 (µM), S9 metabolic activation: with S9, exposure time: 3-4 hours	0.43	6.52	48.9
concentration: 52.4 (µM), S9 metabolic activation: without S9, exposure time: 24 hours	–	–	34.2
concentration: 65.5 (µM), S9 metabolic activation: with S9, exposure time: 3-4 hours	–	–	35.3
concentration: 65.5 (µM), S9 metabolic activation: without S9, exposure time: 24 hours	–	–	30.7
concentration: 81.9 (µM), S9 metabolic activation: with S9, exposure time: 3-4 hours	–	–	35.3
concentration: 81.9 (µM), S9 metabolic activation: without S9, exposure time: 24 hours	–	–	30.1
concentration: 102 (µM), S9 metabolic activation: without S9, exposure time: 24 hours	–	–	30.9
concentration: 128 (µM), S9 metabolic activation: without S9, exposure time: 24 hours	–	–	27.1
concentration: 160 (µM), S9 metabolic activation: without S9, exposure time: 24 hours	–	–	27.03
concentration: 200 (µM), S9 metabolic activation: without S9, exposure time: 24 hours	–	–	26.7
